The results in this text go back to the supplement of paper PMC12217912.

B1: TEV protease; numbered along this chain (parent)
chain: MGESLFKGPRDYNPISSSICHLTNESDGHTTSLYGIGFGPFIITNKHLFRRNNGTLVVQSLHGVFKVKDTTTLQQHLVDGRDMIIIRMPKDFPPFPQKLKFREPQREERICLVTTNFQTKSMSSMVSDTSCTFPSGDGIFWKHWIQTKDGQCGSPLVSTRDGFIVGIHSASNFTNTNNYFTSVPKNFMELLTNQEAQQWVSGWRLNADSVLWGGHKVFMVKPEEPFQPVKEATQL

Variants of B1 are the subject of this assay. In words: raw area under fraction-flipped curve 0-4 h after induction (AUC4h, not background-subtracted), DNA-recorder readout of cleavage of the substrate (dimensionless); higher = more cleavage of the substrate by the protease variant. The conditions noted are these: temperature: 34 °C; time window: 0-4 h after rhamnose induction. The procedure: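 In vivo DNA recorder in E. coli TOP10(DE3) ΔrhaA at 34 °C. Each TEVp single-site mutant (parent TEVp 0) is paired with a single-site variant of the 7-mer TEVs (canonical ENLYFQ|S). The substrate sits between flexible linkers in a Bxb1-sfGFP-TEVs-SsrA fusion, so cleavage stabilises Bxb1 and speeds flipping of a recombination array, read by NGS. The value is the raw area under the fraction-flipped curve over 0-4 h after rhamnose induction (AUC4h), with ≥20 reads per time point. It is not background-subtracted; inactive controls average about 0.047.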

The list shows a part of the results. The full chains were built here from the parent and the listed change. Values near 0.05 are background.
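Also: Bxb1 expression induced with 0.2% (w/v) L-rhamnose at OD600 near 0.5, cultures sampled hourly, flipped fraction per protease–substrate barcode pair counted by paired-end Illumina sequencing.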

For MGESLFKGPRDYNPISSSICHLTNESDGHTTSLYGIGFGPFIITNKHLFRRNNGTLVVQSLHGVFKVKDTTTLQQHLVDGRDTIIIRMPKDFPPFPQKLKFREPQREERICLVTTNFQTKSMSSMVSDTSCTFPSGDGIFWKHWIQTKDGQCGSPLVSTRDGFIVGIHSASNFTNTNNYFTSVPKNFMELLTNQEAQQWVSGWRLNADSVLWGGHKVFMVKPEEPFQPVKEATQL [M83T], the “area with substrate ENLYFQC” value stood at 0.0819, the “area with substrate ENLYFQF” value was found to be 0.0563, the “area with substrate ENLYFQG” value is 0.0756 and the “area with substrate ENLYFQH” value came out at 0.0705. Moreover, the “area with substrate ENLYFQI” value was 0.0534, the “area with substrate ENLYFQK” value was determined as 0.0784, the “area with substrate ENLYFQL” value is 0.0635 and the “area with substrate ENLYFQM” value is 0.0623. Also, the “area with substrate ENLYFQP” value came to 0.0453, the “area with substrate ENLYFQR” value amounted to 0.0447, the “area with substrate ENLYFQS” value is 0.0744 and the “area with substrate ENLYFQT” value amounted to 0.0587. For the same variant, the “area with substrate ENLYFQV” value is 0.0575.
With MGESLFKGPRDYNPISSSICHLTNESDGHTTSLYGIGFGPFIITNKHLFRRNNGTLVVQSLHGVFKVKDTTTLQQHSVDGRDMIIIRMPKDFPPFPQKLKFREPQREERICLVTTNFQTKSMSSMVSDTSCTFPSGDGIFWKHWIQTKDGQCGSPLVSTRDGFIVGIHSASNFTNTNNYFTSVPKNFMELLTNQEAQQWVSGWRLNADSVLWGGHKVFMVKPEEPFQPVKEATQL [L77S], the “area with substrate ENLYFQC” value worked out at 0.0739, the “area with substrate ENLYFQD” value came to 0.0663, the “area with substrate ENLYFQF” value came out at 0.0564 and the “area with substrate ENLYFQG” value worked out at 0.0796. Besides, the “area with substrate ENLYFQI” value was 0.0524, the “area with substrate ENLYFQK” value was determined as 0.0502, the “area with substrate ENLYFQN” value came to 0.101 and the “area with substrate ENLYFQP” value was 0.0445. Further, the “area with substrate ENLYFQR” value is 0.0625, the “area with substrate ENLYFQS” value amounted to 0.0716, the “area with substrate ENLYFQT” value came to 0.0573 and the “area with substrate ENLYFQV” value came out at 0.0671. Further, the “area with substrate ENLYFQW” value turned out to be 0.0561.
For MGESLFKGPRDYNPISSSICHLTNESDGHTTSPYGIGFGPFIITNKHLFRRNNGTLVVQSLHGVFKVKDTTTLQQHLVDGRDMIIIRMPKDFPPFPQKLKFREPQREERICLVTTNFQTKSMSSMVSDTSCTFPSGDGIFWKHWIQTKDGQCGSPLVSTRDGFIVGIHSASNFTNTNNYFTSVPKNFMELLTNQEAQQWVSGWRLNADSVLWGGHKVFMVKPEEPFQPVKEATQL [L33P], the “area with substrate ENLYFQC” value came out at 0.0517, the “area with substrate ENLYFQE” value stood at 0.0516, the “area with substrate ENLYFQG” value was 0.0481 and the “area with substrate ENLYFQI” value amounted to 0.0484. Besides, the “area with substrate ENLYFQL” value came out at 0.0464, the “area with substrate ENLYFQM” value was 0.0464, the “area with substrate ENLYFQN” value was 0.0443 and the “area with substrate ENLYFQP” value stood at 0.0454. The “area with substrate ENLYFQR” value is 0.0443, the “area with substrate ENLYFQS” value came out at 0.0485, the “area with substrate ENLYFQT” value was 0.0502 and the “area with substrate ENLYFQW” value came out at 0.0494. Moreover, the “area with substrate ENLYFQY” value is 0.0546.
Turning to MGESLFKGPRDYNPISSSICHLTNESDGHTTSLYGIGFGPFIITNKLLFRRNNGTLVVQSLHGVFKVKDTTTLQQHLVDGRDMIIIRMPKDFPPFPQKLKFREPQREERICLVTTNFQTKSMSSMVSDTSCTFPSGDGIFWKHWIQTKDGQCGSPLVSTRDGFIVGIHSASNFTNTNNYFTSVPKNFMELLTNQEAQQWVSGWRLNADSVLWGGHKVFMVKPEEPFQPVKEATQL [H47L], the “area with substrate ENLYFQC” value turned out to be 0.0581, the “area with substrate ENLYFQE” value was 0.0504, the “area with substrate ENLYFQH” value was determined as 0.0624 and the “area with substrate ENLYFQI” value came to 0.0437. Besides, the “area with substrate ENLYFQK” value was found to be 0.0531, the “area with substrate ENLYFQM” value came out at 0.04, the “area with substrate ENLYFQN” value was 0.0727 and the “area with substrate ENLYFQP” value was found to be 0.0495. Moreover, the “area with substrate ENLYFQR” value was determined as 0.0543, the “area with substrate ENLYFQS” value was determined as 0.0594, the “area with substrate ENLYFQT” value stood at 0.0546 and the “area with substrate ENLYFQY” value came to 0.0579.
In the case of MGESLFKGPRDYNPISSSICHLTNESDGHTTSLYGIGFGPFIITNKHLFRRNNGTLVVQSLHGVFKVKDTTTLQQHLVDGRDMIIIRMPKDFPPFPQKLKFRQPQREERICLVTTNFQTKSMSSMVSDTSCTFPSGDGIFWKHWIQTKDGQCGSPLVSTRDGFIVGIHSASNFTNTNNYFTSVPKNFMELLTNQEAQQWVSGWRLNADSVLWGGHKVFMVKPEEPFQPVKEATQL [E103Q], the “area with substrate ENLYFQC” value was 0.104, the “area with substrate ENLYFQD” value came to 0.0647, the “area with substrate ENLYFQF” value was determined as 0.0705 and the “area with substrate ENLYFQG” value stood at 0.0877. Moreover, the “area with substrate ENLYFQH” value was determined as 0.0883, the “area with substrate ENLYFQI” value stood at 0.0515, the “area with substrate ENLYFQK” value is 0.0646 and the “area with substrate ENLYFQL” value was 0.0549. Further, the “area with substrate ENLYFQM” value stood at 0.0749, the “area with substrate ENLYFQN” value is 0.081, the “area with substrate ENLYFQP” value stood at 0.0587 and the “area with substrate ENLYFQR” value was found to be 0.025. Besides, the “area with substrate ENLYFQS” value was determined as 0.103, the “area with substrate ENLYFQT” value came out at 0.0685, the “area with substrate ENLYFQW” value stood at 0.0553 and the “area with substrate ENLYFQY” value came out at 0.0707.
In the case of MGESLFKGPRDYNPISSSICHLTNESDGHTTSLYGIGFGPFIITNKHLFDRNNGTLVVQSLHGVFKVKDTTTLQQHLVDGRDMIIIRMPKDFPPFPQKLKFREPQREERICLVTTNFQTKSMSSMVSDTSCTFPSGDGIFWKHWIQTKDGQCGSPLVSTRDGFIVGIHSASNFTNTNNYFTSVPKNFMELLTNQEAQQWVSGWRLNADSVLWGGHKVFMVKPEEPFQPVKEATQL [R50D], the “area with substrate ENLYFQC” value turned out to be 0.127, the “area with substrate ENLYFQD” value stood at 0.0673, the “area with substrate ENLYFQG” value stood at 0.0882 and the “area with substrate ENLYFQH” value was determined as 0.0844. In addition, the “area with substrate ENLYFQI” value came to 0.0555, the “area with substrate ENLYFQL” value worked out at 0.0644, the “area with substrate ENLYFQM” value amounted to 0.106 and the “area with substrate ENLYFQN” value came to 0.072. In addition, the “area with substrate ENLYFQR” value was found to be 0.0781, the “area with substrate ENLYFQS” value turned out to be 0.0952, the “area with substrate ENLYFQW” value was found to be 0.0666 and the “area with substrate ENLYFQY” value stood at 0.0624.
MGESLFKGPRDYNPISSSICHLTNESDGHTTSLYGIGFGPFIITNKHLFRRNNGTLVVQSLHGVFKVKDTTTLQQHLVDGRDMIIIRMPKDFPPFPQKLKFCEPQREERICLVTTNFQTKSMSSMVSDTSCTFPSGDGIFWKHWIQTKDGQCGSPLVSTRDGFIVGIHSASNFTNTNNYFTSVPKNFMELLTNQEAQQWVSGWRLNADSVLWGGHKVFMVKPEEPFQPVKEATQL [R102C]: the “area with substrate ENLYFQC” value worked out at 0.055, the “area with substrate ENLYFQD” value stood at 0.0533, the “area with substrate ENLYFQG” value stood at 0.0629 and the “area with substrate ENLYFQH” value was 0.0356. In addition, the “area with substrate ENLYFQI” value was determined as 0.0535, the “area with substrate ENLYFQK” value came to 0.0351, the “area with substrate ENLYFQL” value amounted to 0.0555 and the “area with substrate ENLYFQM” value was determined as 0.05. Further, the “area with substrate ENLYFQN” value is 0.0386, the “area with substrate ENLYFQR” value is 0.0424, the “area with substrate ENLYFQS” value amounted to 0.0592 and the “area with substrate ENLYFQT” value stood at 0.0532. For the same variant, the “area with substrate ENLYFQW” value came to 0.0481 and the “area with substrate ENLYFQY” value worked out at 0.0396.
On to MGESLFKGPRDYNPISSSICHLTNESDGHTTSLYGIGFGPFIITNKHLFRRNNGTLVVQSLHGVFKVKDTTTLQQHLVDGRDMIPIRMPKDFPPFPQKLKFREPQREERICLVTTNFQTKSMSSMVSDTSCTFPSGDGIFWKHWIQTKDGQCGSPLVSTRDGFIVGIHSASNFTNTNNYFTSVPKNFMELLTNQEAQQWVSGWRLNADSVLWGGHKVFMVKPEEPFQPVKEATQL [I85P], for which the “area with substrate ENLYFQC” value worked out at 0.0112, the “area with substrate ENLYFQG” value was 0.0242, the “area with substrate ENLYFQI” value turned out to be 0.0342 and the “area with substrate ENLYFQL” value amounted to 0.0203. Besides, the “area with substrate ENLYFQM” value is 0.0359, the “area with substrate ENLYFQN” value stood at 0.0574, the “area with substrate ENLYFQQ” value worked out at 0.0259 and the “area with substrate ENLYFQR” value is 0.0439. The “area with substrate ENLYFQS” value turned out to be 0.0379, the “area with substrate ENLYFQT” value came to 0.053, the “area with substrate ENLYFQV” value was determined as 0.0703 and the “area with substrate ENLYFQW” value was 0.0272.
As to MGESLFKGPRDYNPISSSICHLTNESDGHTTSLYGIGFGPFIITNKHLFRRNNGTLVVQSLHGVFKVKDTTDLQQHLVDGRDMIIIRMPKDFPPFPQKLKFREPQREERICLVTTNFQTKSMSSMVSDTSCTFPSGDGIFWKHWIQTKDGQCGSPLVSTRDGFIVGIHSASNFTNTNNYFTSVPKNFMELLTNQEAQQWVSGWRLNADSVLWGGHKVFMVKPEEPFQPVKEATQL [T72D], the “area with substrate ENLYFQC” value worked out at 0.107, the “area with substrate ENLYFQD” value came out at 0.0762, the “area with substrate ENLYFQF” value turned out to be 0.0673 and the “area with substrate ENLYFQG” value was found to be 0.104. In addition, the “area with substrate ENLYFQH” value is 0.11, the “area with substrate ENLYFQI” value was determined as 0.0615, the “area with substrate ENLYFQK” value was found to be 0.07 and the “area with substrate ENLYFQM” value turned out to be 0.0887. The “area with substrate ENLYFQR” value was found to be 0.0595, the “area with substrate ENLYFQS” value stood at 0.0931, the “area with substrate ENLYFQT” value stood at 0.0737 and the “area with substrate ENLYFQV” value was determined as 0.054. Also, the “area with substrate ENLYFQW” value was found to be 0.0668 and the “area with substrate ENLYFQY” value is 0.067.
